# PubChem BioAssay (Tox21)
# Values joined by “and” are separate entries in the source; they are usually repeats but may differ in a detail not shown here. Equal values may be shown once. This list was built around the results that the source calls inconclusive (neither active nor inactive); the mix of calls is not that of the screen. For some assays here: A potency beside an inconclusive call is a rough fit, not a confirmed value. Where a structure was tested more than once in an assay, its records may differ in their call. Active and inactive are the calls of the source. Unless noted, calls follow the shape of the dose curve; as a rule, active = well fitted curve in the direction sought with a large enough effect in the repeat runs; inconclusive = weak or mixed curves; inactive = no such curve, though single readings can be large; an effect the other way counts as inactive or inconclusive.
# Key:
# [1] = target: Aryl hydrocarbon receptor (Homo sapiens) (UniProt P35869); assay: qHTS assay to identify small molecule that activate the aryl hydrocarbon receptor (AhR) signaling pathway (AID 743085); also: nearly all actives have a fitted effect of over 15% in size; also: potency is read from the fitted curve at half-maximal effect
# Chain of UniProt P35869 (P35869 whole entry, looked up): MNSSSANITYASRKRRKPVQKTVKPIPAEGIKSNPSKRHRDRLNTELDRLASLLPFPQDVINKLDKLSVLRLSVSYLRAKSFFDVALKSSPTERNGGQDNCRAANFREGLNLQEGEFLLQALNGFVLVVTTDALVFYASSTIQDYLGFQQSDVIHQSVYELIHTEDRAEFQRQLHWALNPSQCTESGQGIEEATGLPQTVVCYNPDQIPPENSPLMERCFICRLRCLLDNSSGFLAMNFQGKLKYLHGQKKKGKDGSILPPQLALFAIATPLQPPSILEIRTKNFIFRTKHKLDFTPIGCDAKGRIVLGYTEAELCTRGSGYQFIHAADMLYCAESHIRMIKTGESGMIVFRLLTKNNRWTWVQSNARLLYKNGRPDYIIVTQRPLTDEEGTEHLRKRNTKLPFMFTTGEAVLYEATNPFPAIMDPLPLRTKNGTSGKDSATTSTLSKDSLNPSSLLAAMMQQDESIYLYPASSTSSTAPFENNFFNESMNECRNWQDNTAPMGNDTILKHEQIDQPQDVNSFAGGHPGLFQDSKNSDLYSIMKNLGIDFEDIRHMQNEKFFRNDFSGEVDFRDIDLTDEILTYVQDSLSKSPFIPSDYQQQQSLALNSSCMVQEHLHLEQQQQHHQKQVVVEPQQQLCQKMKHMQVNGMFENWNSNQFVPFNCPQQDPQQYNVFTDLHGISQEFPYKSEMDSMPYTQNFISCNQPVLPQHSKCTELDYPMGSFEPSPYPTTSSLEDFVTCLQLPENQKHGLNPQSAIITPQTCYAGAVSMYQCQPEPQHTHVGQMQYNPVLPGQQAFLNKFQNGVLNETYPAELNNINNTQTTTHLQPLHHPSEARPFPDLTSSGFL
# Summary of the method: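 Compounds were tested in HepG2 hepatocellular carcinoma cells harbouring a stably integrated luciferase gene under control of 20 DREs. Increased reporter signal after 24 h treatment at 37C was taken as AhR activation.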
# [2] = target: Peroxisome proliferator-activated receptor gamma (Homo sapiens) (UniProt P37231); assay: qHTS assay to identify small molecule antagonists of the peroxisome proliferator-activated receptor gamma (PPARg) signaling pathway (AID 743191; calls by dose curve; also: % is scaled to controls: 0 for no effect and ±100 for the full control effect; nearly all actives have a fitted effect of over 30% in size); conditions: HEK293H PPARg-UAS-bla, beta-lactamase ratio, antagonist, 17 h
# Chain of UniProt P37231 (P37231 whole entry, looked up): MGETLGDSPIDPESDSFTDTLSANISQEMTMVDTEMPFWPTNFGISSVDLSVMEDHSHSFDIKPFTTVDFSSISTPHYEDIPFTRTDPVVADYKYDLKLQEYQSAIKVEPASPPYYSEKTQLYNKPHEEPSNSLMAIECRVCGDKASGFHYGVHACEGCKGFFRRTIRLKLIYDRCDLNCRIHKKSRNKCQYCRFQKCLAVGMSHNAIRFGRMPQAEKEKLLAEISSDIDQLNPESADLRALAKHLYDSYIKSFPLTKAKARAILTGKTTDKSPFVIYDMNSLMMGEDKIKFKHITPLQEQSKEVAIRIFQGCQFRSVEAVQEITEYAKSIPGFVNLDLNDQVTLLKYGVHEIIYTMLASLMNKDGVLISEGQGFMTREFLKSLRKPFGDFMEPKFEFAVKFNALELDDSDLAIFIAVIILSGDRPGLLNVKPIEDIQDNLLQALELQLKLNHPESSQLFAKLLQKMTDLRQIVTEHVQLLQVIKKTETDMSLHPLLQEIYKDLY
# Summary of the method: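 GeneBLAzer PPARg UAS-bla HEK293H cells, 5 h post-plating, exposed to compounds 17 h at 37C. LiveBLAzer B/G FRET substrate added for 1 h at room temperature; beta-lactamase reporter read by fluorescence intensity.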
# [3] = qHTS assay for small molecule agonists of the antioxidant response element (ARE) signaling pathway (AID 743202; active = well fitted activation curve with a large enough effect in the signal ratio in the repeat runs, not every such curve was filed as active; inconclusive = weak or mixed curves, or effect the other way; inactive = no such curve, though single readings can be large or run the other way; the % refers to the signal ratio; also: potency is read from the fitted curve at half-maximal effect; as to activation: % is scaled to controls: 0 for no effect and ±100 for the full control effect); conditions: HepG2 ARE-bla reporter, beta-lactamase FRET, 16 h; activation: at 73.3 µM (top of the series) unless noted
# Summary of the method: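 ARE-bla HepG2 cells (beta-lactamase reporter under the antioxidant response element), plated 5 hours, then exposed to compounds 16 hours at 37 C. LiveBLAzer B/G FRET substrate added for 2 hours at room temperature; fluorescence intensity read.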
# [4] = qHTS assay to identify small molecule antagonists of the peroxisome proliferator-activated receptor delta (PPARd) signaling pathway - cell viability counter screen (AID 743213); conditions: PPARd-bla HEK293H viability, CellTiter-Glo luminescence, 17 h; viability change, negative = cytotoxic: at 62 µM (top of the series) unless noted; also: nearly all actives have a fitted effect of over 50% in size; also: potency is read from the fitted curve at half-maximal effect; as to viability change, negative = cytotoxic: % is scaled to controls: 0 for no effect and ±100 for the full control effect
# Summary of the method: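 PPARd-bla HEK293H cells were treated with compounds plus agonist L165041 (300 nM final) for 17 h at 37 C. Viability was then read in the same wells by CellTiter-Glo luminescence after 30 min at room temperature.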
# [5] = target: Vitamin D3 receptor (Homo sapiens) (UniProt P11473); assay: qHTS assay to identify small molecule agonists of the vitamin D receptor (VDR) signaling pathway (AID 743222; calls by dose curve; also: % is scaled to controls: 0 for no effect and ±100 for the full control effect); conditions: HEK293T VDR-UAS-bla, beta-lactamase FRET ratio, 16 h; activation: at 63.5 µM (top of the series) unless noted
# Chain of UniProt P11473 (P11473 whole entry, looked up): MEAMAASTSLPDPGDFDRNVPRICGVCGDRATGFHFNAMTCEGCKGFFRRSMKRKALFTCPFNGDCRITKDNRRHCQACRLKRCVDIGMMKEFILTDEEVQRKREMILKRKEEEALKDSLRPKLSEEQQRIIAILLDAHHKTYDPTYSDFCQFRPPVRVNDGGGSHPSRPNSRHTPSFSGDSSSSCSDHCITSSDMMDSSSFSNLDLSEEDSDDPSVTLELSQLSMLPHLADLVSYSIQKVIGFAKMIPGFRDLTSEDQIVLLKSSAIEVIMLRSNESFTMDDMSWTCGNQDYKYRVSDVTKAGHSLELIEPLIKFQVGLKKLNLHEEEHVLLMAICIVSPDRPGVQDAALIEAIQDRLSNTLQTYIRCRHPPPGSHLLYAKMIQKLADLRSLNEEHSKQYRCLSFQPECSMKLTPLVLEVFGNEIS
# Summary of the method: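 Quantitative HTS agonist-mode screen: compounds in DMSO were pin-transferred onto VDR-bla cells and incubated 16 h at 37C, 5% CO2. Reporter activity was detected with LiveBLAzer B/G FRET substrate after 2 h at room temperature.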
# [6] = target: Vitamin D3 receptor (Homo sapiens) (UniProt P11473); assay: qHTS assay to identify small molecule antagonists of the vitamin D receptor (VDR) signaling pathway (AID 743223; active = well fitted inhibition curve with a large enough effect in the signal ratio in the repeat runs, not every such curve was filed as active; inconclusive = weak or mixed curves, or effect the other way; inactive = no such curve, though single readings can be large or run the other way; the % refers to the signal ratio; also: % is scaled to controls: 0 for no effect and ±100 for the full control effect); conditions: VDR-UAS-bla HEK293T, beta-lactamase FRET ratio, 16 h; activity change, negative = inhibition: at 61 µM (top of the series) unless noted
# Summary of the method: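 Cells carrying a VDR-driven beta-lactamase reporter (VDR-bla) were co-treated with compound and 3 nM final 1alpha,25-dihydroxyvitamin D3 for 16 h at 37C; reporter activity was measured as FRET substrate fluorescence after 2 h at room temperature.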
# [7] = qHTS assay to identify small molecule agonists of the farnesoid-X-receptor (FXR) signaling pathway - cell viability counter screen (AID 743218); conditions: FXR-bla HEK293T viability, CellTiter-Glo luminescence, 16 h; viability change, negative = cytotoxic: at 62.6 µM (top of the series) unless noted; also: % is scaled to controls: 0 for no effect and ±100 for the full control effect; nearly all actives have a fitted effect of over 45% in size
# Summary of the method: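 Cytotoxicity counter-screen run in parallel, same wells: FXR-UAS-bla HEK 293T cells dosed 16 h at 37 C, viability read by CellTiter-Glo luminescence after 30 min at room temperature.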
# [8] = target: Peroxisome proliferator-activated receptor delta (Homo sapiens) (UniProt Q03181); assay: qHTS assay to identify small molecule agonists of the peroxisome proliferator-activated receptor delta (PPARd) signaling pathway (AID 743212; calls by dose curve; also: potency is read from the fitted curve at half-maximal effect); conditions: HEK293H PPARd-UAS-bla, beta-lactamase FRET ratio, 17 h; activation: at 62.6 µM (top of the series) unless noted
# Chain of UniProt Q03181 (Q03181 whole entry, looked up): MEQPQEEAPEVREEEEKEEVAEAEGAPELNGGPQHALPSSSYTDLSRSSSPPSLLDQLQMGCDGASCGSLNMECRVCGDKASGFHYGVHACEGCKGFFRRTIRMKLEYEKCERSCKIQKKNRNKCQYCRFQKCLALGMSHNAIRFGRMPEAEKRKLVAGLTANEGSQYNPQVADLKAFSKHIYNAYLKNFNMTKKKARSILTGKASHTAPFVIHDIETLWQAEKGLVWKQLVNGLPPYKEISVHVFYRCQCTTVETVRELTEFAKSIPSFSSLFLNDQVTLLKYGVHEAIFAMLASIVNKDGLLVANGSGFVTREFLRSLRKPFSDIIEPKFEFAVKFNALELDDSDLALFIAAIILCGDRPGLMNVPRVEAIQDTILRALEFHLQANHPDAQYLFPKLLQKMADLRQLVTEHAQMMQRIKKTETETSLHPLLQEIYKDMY
# Summary of the method: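 GeneBLAzer UAS-bla HEK293H cells carrying a PPARδ construct were exposed to compounds at 37 °C. Beta-lactamase activity was read by FRET fluorescence after 2 h at room temperature with LiveBLAzer B/G substrate.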
# [9] = target: Peroxisome proliferator-activated receptor delta (Homo sapiens) (UniProt Q03181); assay: qHTS assay to identify small molecule antagonists of the peroxisome proliferator-activated receptor delta (PPARd) signaling pathway (AID 743215; active = well fitted inhibition curve with a large enough effect in the signal ratio in the repeat runs, not every such curve was filed as active; inconclusive = weak or mixed curves, or effect the other way; inactive = no such curve, though single readings can be large or run the other way; the % refers to the signal ratio;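 also: cells stimulated with agonist L165041 at 300 nM final during compound exposure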; also: potency is read from the fitted curve at half-maximal effect); conditions: HEK293H PPARd-UAS-bla, beta-lactamase FRET ratio, antagonist, 17 h; ratio activity, negative = inhibition: at 62 µM (top of the series) unless noted
# Summary of the method: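 Inhibition of L165041-driven (300 nM final) PPARd signaling is scored in HEK293H UAS-bla cells. Exposure lasts 17 h at 37 C; beta-lactamase activity is then read by FRET substrate fluorescence after 2 h at room temperature.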
# [10] = qHTS assay for small molecule activators of the heat shock response signaling pathway - cell viability counter screen (AID 743209); conditions: HSE-bla HeLa viability, CellTiter-Glo luminescence, 5 h; activity change, negative = cytotoxicity: at 62.6 µM (top of the series); also: potency is read from the fitted curve at half-maximal effect; nearly all actives have a fitted effect of over 50% in size
# Summary of the method: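 First, HSE-bla HeLa cells were seeded at 1500 cells/well and kept overnight at 37 C. Next, compounds were pinned in and incubated 5 h. After the FRET substrate step, CellTiter-Glo was added and luminescence read 30 min later.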
# [11] = qHTS assay to identify small molecule agonists of the peroxisome proliferator-activated receptor delta (PPARd) signaling pathway - cell viability counter screen (AID 743211); conditions: PPARd-bla HEK293H viability, CellTiter-Glo luminescence, 17 h; activity change, negative = cytotoxicity: at 62.6 µM (top of the series); also: potency is read from the fitted curve at half-maximal effect; nearly all actives have a fitted effect of over 55% in size
# Summary of the method: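 Counter screen for cytotoxicity run in parallel with the PPARd reporter screen. Beta-lactamase reporter HEK293H cells exposed to compounds 17 h; ATP-based CellTiter-Glo luminescence quantified viability.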
# [12] = target: Bile acid receptor (Homo sapiens) (UniProt Q96RI1); assay: qHTS assay to identify small molecule antagonists of the farnesoid-X-receptor (FXR) signaling pathway (AID 743217; active = well fitted inhibition curve with a large enough effect in the signal ratio in the repeat runs, not every such curve was filed as active; inconclusive = weak or mixed curves, or effect the other way; inactive = no such curve, though single readings can be large or run the other way; the % refers to the signal ratio; also: potency is read from the fitted curve at half-maximal effect); conditions: HEK293T FXR-UAS-bla, beta-lactamase ratio, CDCA-stimulated, 16 h
# Chain of UniProt Q96RI1 (Q96RI1 whole entry, looked up): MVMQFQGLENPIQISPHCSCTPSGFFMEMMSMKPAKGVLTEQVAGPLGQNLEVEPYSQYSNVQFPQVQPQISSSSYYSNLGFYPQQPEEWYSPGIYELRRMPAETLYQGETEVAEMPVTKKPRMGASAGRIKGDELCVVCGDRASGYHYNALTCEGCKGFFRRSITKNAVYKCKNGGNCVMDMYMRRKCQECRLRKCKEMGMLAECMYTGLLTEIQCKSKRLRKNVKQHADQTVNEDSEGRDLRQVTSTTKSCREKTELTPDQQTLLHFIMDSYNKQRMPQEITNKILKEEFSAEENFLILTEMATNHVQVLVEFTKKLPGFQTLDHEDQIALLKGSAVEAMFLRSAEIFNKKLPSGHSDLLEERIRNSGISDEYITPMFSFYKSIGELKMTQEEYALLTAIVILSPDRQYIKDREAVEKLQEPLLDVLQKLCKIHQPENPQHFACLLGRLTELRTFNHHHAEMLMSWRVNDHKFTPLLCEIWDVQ
# Summary of the method: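 Antagonist mode against 50 uM (final) chenodeoxycholic acid stimulation in FXR-bla HEK 293T cells, 16 h at 37 °C. Inhibition detected as reduced beta-lactamase activity via LiveBLAzer B/G FRET fluorescence after 2 h at room temperature.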
# [13] = qHTS assay to identify small molecule antagonists of the peroxisome proliferator-activated receptor gamma (PPARg) signaling pathway - cell viability counter screen (AID 743194); conditions: PPARg-bla HEK293H viability, CellTiter-Glo luminescence, 17 h, co-treated with 50 nM rosiglitazone; activity change, negative = cytotoxicity: at 62.6 µM (top of the series); also: potency is read from the fitted curve at half-maximal effect; nearly all actives have a fitted effect of over 55% in size
# Summary of the method: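 Cytotoxicity counter screen in PPARg-bla HEK293H cells, same wells as reporter assay. Compounds plus 50 nM rosiglitazone (final) for 17 h at 37 C, then viability read by CellTiter-Glo luminescence.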
# [14] = qHTS assay for small molecule agonists of the antioxidant response element (ARE) signaling pathway - cell viability counter screen (AID 743203; calls by dose curve; also: % is scaled to controls: 0 for no effect and ±100 for the full control effect; nearly all actives have a fitted effect of over 55% in size); conditions: ARE-bla HepG2 viability, CellTiter-Glo luminescence, 16 h; viability change, negative = cytotoxic: at 73.3 µM (top of the series)
# Summary of the method: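 Seeded at 2,000 cells/well, ARE-bla HepG2 cells were incubated 5 hrs before compound addition. After 16 hrs of treatment at 37C with 5% CO2, CellTiter-Glo reagent was added and luminescence read 30 min later.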
# [15] = target: Bile acid receptor (Homo sapiens) (UniProt Q96RI1); assay: qHTS assay to identify small molecule agonists of the farnesoid-X-receptor (FXR) signaling pathway (AID 743220; active = well fitted activation curve with a large enough effect in the signal ratio in the repeat runs, not every such curve was filed as active; inconclusive = weak or mixed curves, or effect the other way; the % refers to the signal ratio; also: potency is read from the fitted curve at half-maximal effect); conditions: HEK293T FXR-UAS-bla, beta-lactamase FRET ratio, 16 h; activation: at 62.6 µM (top of the series) unless noted
# Summary of the method: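 Beta-lactamase reporter under UAS control in GeneBLAzer FXR HEK 293T cells (5000/well) measured with LiveBLAzer FRET substrate after 2 h at room temperature. Compound exposure lasted 16 h at 37C.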
# [16] = ratio activity, negative = inhibition: at 62.6 µM (top of the series) unless noted
# [17] = activity change, negative = inhibition: at 62.6 µM (top of the series) unless noted
# Tags tell the direction and shape of the fitted curve or compound fluorescence and quenching.
structure (smiles),measurement,setting,value
CC1=NN(c2ccc(C(=O)O)cc2)C(=O)C1,Potency,[1],inconclusive: 68.6 µM [activator]
same,Potency,[2]; [16],inactive
same,Potency,[3],inactive
same,Potency,[4],inactive
same,Potency,[5],inactive
same,"activity change, negative = inhibition",[6],inconclusive: 0.341%
ONc1ccccc1,Potency,[1],active: 60.5 µM
same,Potency,[2]; [16],inactive
same,Potency,[3],"inconclusive: 34 µM [rising, partial curve]"
same,Potency,[7],inactive
same,Potency,[6],inactive
CCN(CC)c1cccc(O)c1,Potency,[1],"inconclusive: 22.1 µM [activator, full curve, poor fit]"
same,"ratio activity, negative = inhibition",[2]; [16],inconclusive: 3.16% [at 81.1 µM]
same,Potency,[3],"inconclusive: 22.1 µM [rising, full curve, poor fit]"
same,Potency,[8],"inconclusive: 39.7 µM [rising, partial curve, poor fit]"
same,Potency,[9],inactive
CCCCCCCCOc1ccc(C(=O)c2ccccc2)c(O)c1,Potency,[1],inactive
same,"ratio activity, negative = inhibition",[2]; at 62.6 µM (top of the series),inconclusive: 24.7% and inactive: 13%
same,"ratio activity, negative = inhibition",[2]; at 81.1 µM (top of the series),inconclusive: 9.97%
same,Potency,[3],active: 48.6 µM
same,Potency,[10],"inconclusive: 54.9 µM [cytotoxic, partial curve, poor fit]"
same,Potency,[11],"inconclusive: 54.9 µM [cytotoxic, single point]"
same,Potency,[4],"inconclusive: 49 µM [cytotoxic, partial curve, poor fit]"
same,Potency,[12]; [17],inconclusive: 24.5 µM [inhibitor]
same,"activity change, negative = inhibition",[12]; [17],inconclusive: -20.4% [at 81.1 µM]
same,"activity change, negative = inhibition",[12]; at 62.6 µM (top of the series),inactive: -14.4%
same,activation,[5],inconclusive: -28.4%
same,Potency,[6],inactive
c1ccc2c(c1)c1cccc3ccc4cccc2c4c31,Potency,[1],"inconclusive: 3.04 µM [activator, partial curve, poor fit]"
same,Potency,[13],"inconclusive: 0.386 µM [rising, partial curve, poor fit]"
same,Potency,[3],active: 60.7 µM
same,activation,[3],inconclusive: 11.1%
same,Potency,[14],inactive
same,Potency,[8],inconclusive: 54.6 µM
same,Potency,[9],"inconclusive: 21.9 µM [fluorescent, full curve, poor fit]"
same,"viability change, negative = cytotoxic",[7],inconclusive: -11.4%
same,Potency,[15],"inconclusive: 54.6 µM [activator, single point]"
same,activation,[5],inconclusive: 1.93%
Cc1ccc2c(n1)Oc1ccc(C(C)C(=O)OCC(=O)N(C)C)cc1C2 (stereo unspecified),Potency,[1],active: 11.9 µM
same,Potency,[4],"inconclusive: 13.3 µM [rising, single point]"
same,"activity change, negative = inhibition",[6],inconclusive: 22.2%
